Results are given in words; binding and its absence hold for the method and conditions named. Binding seen in cells or lysates may run through a third protein. Some entries that bind do so weakly or less than the wild type. Sequences can lack the tags named with a protein.
T1: GFP-DFCP1^WT (Double FYVE Domain Containing Protein 1) (UniProt Q9HBF4)
T1 sequence: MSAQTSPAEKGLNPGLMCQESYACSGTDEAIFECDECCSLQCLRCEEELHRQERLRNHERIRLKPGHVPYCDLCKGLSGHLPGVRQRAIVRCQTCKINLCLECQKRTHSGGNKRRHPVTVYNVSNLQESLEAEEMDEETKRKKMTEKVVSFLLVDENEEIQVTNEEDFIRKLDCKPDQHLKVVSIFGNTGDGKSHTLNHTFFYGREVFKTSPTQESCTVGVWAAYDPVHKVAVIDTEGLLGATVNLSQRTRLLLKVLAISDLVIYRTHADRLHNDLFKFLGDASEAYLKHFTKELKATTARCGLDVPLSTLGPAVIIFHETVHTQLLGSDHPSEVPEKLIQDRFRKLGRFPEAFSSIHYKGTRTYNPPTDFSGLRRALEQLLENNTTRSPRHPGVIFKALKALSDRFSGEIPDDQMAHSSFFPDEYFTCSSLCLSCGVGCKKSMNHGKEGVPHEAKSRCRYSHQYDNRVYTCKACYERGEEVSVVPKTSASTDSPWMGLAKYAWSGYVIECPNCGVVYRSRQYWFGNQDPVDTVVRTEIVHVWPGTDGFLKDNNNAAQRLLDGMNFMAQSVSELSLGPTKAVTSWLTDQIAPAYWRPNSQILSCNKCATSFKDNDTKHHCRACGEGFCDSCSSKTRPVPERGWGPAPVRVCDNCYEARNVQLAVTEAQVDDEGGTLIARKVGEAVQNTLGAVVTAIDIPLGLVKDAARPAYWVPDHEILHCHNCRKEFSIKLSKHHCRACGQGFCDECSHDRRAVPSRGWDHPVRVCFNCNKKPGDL

T2: GFP-DFCP1^KA (K193A) (UniProt Q9HBF4)
T2 sequence: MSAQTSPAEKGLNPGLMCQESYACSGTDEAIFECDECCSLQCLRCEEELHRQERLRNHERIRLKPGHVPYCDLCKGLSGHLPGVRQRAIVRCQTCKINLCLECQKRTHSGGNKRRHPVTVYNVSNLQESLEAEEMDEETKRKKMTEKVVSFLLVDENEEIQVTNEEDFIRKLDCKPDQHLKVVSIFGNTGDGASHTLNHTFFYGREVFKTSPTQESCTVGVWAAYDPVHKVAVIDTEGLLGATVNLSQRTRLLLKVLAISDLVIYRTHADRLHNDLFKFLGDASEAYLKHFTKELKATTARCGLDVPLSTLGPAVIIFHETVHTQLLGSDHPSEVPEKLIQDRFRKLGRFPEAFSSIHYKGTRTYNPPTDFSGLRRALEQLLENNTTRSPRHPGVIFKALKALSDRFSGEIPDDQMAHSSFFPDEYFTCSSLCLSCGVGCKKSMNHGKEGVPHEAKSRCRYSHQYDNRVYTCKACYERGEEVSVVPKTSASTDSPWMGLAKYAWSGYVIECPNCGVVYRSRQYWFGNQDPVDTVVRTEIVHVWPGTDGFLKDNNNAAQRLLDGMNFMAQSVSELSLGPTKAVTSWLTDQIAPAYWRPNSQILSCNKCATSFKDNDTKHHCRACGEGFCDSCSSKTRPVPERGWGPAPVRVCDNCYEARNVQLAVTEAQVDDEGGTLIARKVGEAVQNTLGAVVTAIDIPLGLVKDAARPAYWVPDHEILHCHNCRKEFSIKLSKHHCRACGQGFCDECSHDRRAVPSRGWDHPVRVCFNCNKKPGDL

T3: GFP-DFCP1^1-415 (UniProt Q9HBF4)
T3 sequence: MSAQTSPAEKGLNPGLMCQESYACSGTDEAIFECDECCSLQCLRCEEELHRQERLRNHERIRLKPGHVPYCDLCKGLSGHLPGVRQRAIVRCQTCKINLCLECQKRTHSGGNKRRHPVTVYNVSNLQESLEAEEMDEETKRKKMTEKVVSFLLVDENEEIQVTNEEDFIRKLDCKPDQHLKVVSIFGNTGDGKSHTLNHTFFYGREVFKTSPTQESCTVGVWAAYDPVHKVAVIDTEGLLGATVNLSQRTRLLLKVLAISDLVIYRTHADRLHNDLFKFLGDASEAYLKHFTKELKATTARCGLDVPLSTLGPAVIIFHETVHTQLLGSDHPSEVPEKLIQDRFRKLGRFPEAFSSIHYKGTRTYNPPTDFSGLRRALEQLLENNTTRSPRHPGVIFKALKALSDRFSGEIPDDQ

T4: DFCP1^554-777 (UniProt Q9HBF4)
T4 sequence: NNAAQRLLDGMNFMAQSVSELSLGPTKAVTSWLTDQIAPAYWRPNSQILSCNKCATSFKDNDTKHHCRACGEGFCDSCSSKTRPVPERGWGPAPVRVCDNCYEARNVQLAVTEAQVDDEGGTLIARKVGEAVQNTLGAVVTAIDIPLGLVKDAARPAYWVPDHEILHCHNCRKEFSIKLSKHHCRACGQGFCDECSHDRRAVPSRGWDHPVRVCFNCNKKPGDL

T5: GFP-DFCP1^415-777 (UniProt Q9HBF4)
T5 sequence: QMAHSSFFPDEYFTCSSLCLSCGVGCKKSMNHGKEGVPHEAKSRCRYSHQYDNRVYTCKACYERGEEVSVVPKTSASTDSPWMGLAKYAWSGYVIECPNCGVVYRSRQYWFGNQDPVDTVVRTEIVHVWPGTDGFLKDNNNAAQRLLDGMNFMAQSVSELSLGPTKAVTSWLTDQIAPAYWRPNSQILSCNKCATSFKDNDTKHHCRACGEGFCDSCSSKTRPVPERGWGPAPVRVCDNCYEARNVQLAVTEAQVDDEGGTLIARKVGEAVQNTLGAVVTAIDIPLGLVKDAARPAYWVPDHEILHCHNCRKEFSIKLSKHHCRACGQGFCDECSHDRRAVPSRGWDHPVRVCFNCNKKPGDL

T6: GFP-DFCP1^RQ (R266Q) (UniProt Q9HBF4)
T6 sequence: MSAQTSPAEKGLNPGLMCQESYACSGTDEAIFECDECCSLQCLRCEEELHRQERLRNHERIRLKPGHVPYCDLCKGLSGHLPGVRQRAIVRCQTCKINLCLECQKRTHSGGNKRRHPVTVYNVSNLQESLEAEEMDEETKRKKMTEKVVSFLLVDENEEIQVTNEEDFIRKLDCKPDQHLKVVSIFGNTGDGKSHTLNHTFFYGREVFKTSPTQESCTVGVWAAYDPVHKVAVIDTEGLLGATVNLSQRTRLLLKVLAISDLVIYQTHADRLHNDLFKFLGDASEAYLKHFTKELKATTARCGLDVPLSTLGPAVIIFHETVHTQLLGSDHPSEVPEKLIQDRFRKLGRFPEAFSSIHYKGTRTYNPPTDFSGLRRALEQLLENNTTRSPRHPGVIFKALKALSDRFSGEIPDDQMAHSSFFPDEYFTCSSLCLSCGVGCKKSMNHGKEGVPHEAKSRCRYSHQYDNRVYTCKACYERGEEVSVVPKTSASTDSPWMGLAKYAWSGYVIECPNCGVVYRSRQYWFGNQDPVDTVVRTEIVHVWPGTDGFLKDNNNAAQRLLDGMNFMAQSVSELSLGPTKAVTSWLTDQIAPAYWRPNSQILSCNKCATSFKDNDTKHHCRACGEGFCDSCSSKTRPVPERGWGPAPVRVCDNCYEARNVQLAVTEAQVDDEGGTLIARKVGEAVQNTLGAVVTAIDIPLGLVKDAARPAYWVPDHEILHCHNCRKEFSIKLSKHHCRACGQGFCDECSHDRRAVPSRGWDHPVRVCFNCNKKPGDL


Legend:
Assay in all cases: pull-down; semi-in vitro: GFP-DFCP1 constructs pulled out of HEK 293T lysates onto His-GFP-nanobody beads, washed repeatedly with PBS, then incubated with purified ATGL (FLAG-ATGL or MBP-ATGL 1-254); detected by blot; only the binder purified
[1] = biological target: T1, GFP-DFCP1^WT (Double FYVE Domain Containing Protein 1)
GFP-DFCP1^KA (K193A) = biological target: T2, GFP-DFCP1^KA (K193A)
GFP-DFCP1^1-415 = biological target: T3, GFP-DFCP1^1-415
DFCP1^554-777 = biological target: T4, DFCP1^554-777
GFP-DFCP1^415-777 = biological target: T5, GFP-DFCP1^415-777
GFP-DFCP1^RQ (R266Q) = biological target: T6, GFP-DFCP1^RQ (R266Q)

binding [1]	binding (GFP-DFCP1^KA (K193A))	binding (GFP-DFCP1^1-415)	binding (DFCP1^554-777)	binding (GFP-DFCP1^415-777)	binding (GFP-DFCP1^RQ (R266Q))	Binder
binds						FLAG-ATGL (human Adipose Triglyceride Lipase, full length) (enzyme, UniProt Q96AD5 1-504) MFPREKTWNISFAGCGFLGVYYVGVASCLREHAPFLVANATHIYGASAGALTATALVTGVCLGEAGAKFIEVSKEARKRFLGPLHPSFNLVKIIRSFLLKVLPADSHEHASGRLGISLTRVSDGENVIISHFNSKDELIQANVCSGFIPVYCGLIPPSLQGVRYVDGGISDNLPLYELKNTITVSPFSGESDICPQDSSTNIHELRVTNTSIQFNLRNLYRLSKALFPPEPLVLREMCKQGYRDGLRFLQRNGLLNRPNPLLALPPARPHGPEDKDQAVESAQAEDYSQLPGEDHILEHLPARLNEALLEACVEPTDLLTTLSNMLPVRLATAMMVPYTLPLESALSFTIRLLEWLPDVPEDIRWMKEQTGSICQYLVMRAKRKLGRHLPSRLPEQVELRRVQSLPSVPLSCAAYREALPGWMRNNLSLGDALAKWEECQRQLLLGLFCTNVAFPPEALRMRAPADPAPAPADPASPQHQLAGPAPLLSTPAPEARPVIGALGL
binds	binds	no binding	binds	binds	binds	MBP-ATGL (1–254) (domain or fragment, UniProt Q96AD5 1-254) MFPREKTWNISFAGCGFLGVYYVGVASCLREHAPFLVANATHIYGASAGALTATALVTGVCLGEAGAKFIEVSKEARKRFLGPLHPSFNLVKIIRSFLLKVLPADSHEHASGRLGISLTRVSDGENVIISHFNSKDELIQANVCSGFIPVYCGLIPPSLQGVRYVDGGISDNLPLYELKNTITVSPFSGESDICPQDSSTNIHELRVTNTSIQFNLRNLYRLSKALFPPEPLVLREMCKQGYRDGLRFLQRNGL
